Among all 48,000 compounds or so, about 120 (0.25%) were called active. Inconclusive results (about 4%) are left out. Calls follow the shape of the dose curve; as a rule, active = well fitted activation curve with a large enough effect; inconclusive = small, poorly fitted or top-dose-only effect, or another doubt; inactive = no such curve, though single readings can be large or run the other way. The list shows a part of the results.

This experiment in a line: Primary qHTS for Identification of Small Molecule Activators of Huntingtin-Antisense Promoter Activity. Also: nearly all actives have a fitted effect of over 55% in size. Conditions: HEK293 HTT-AS promoter firefly luciferase reporter, 24 h; series mostly up to 57.5 µM; activity change, positive = activation: at the top concentration. The procedure, abridged:
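Firefly luciferase signal from promoter-reporter HEK293 cells was scaled between vehicle (0%) and zero RLU (-100%). Compounds were tested at final concentrations of up to 57.5 uM over 24 h at 37 degrees C. PTC124 at 50 uM final served as control inhibitor.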
Regarding `CCC1=C(c2ccc(C)cc2)S(=O)(=O)N=C1N1CCC(C(=O)NCc2ccccc2Cl)CC1`, the “activity change, positive = activation” value is inactive: -35.3%.
As for `CCCN(CCC)CCNC(=O)C1CCCN(S(=O)(=O)c2cccc3nsnc23)C1` (configuration not stated), the figure is inactive: 2.21%; as for `CCCCCOC(=O)c1ccc(OC(=O)c2sc3ncn(Cc4cccc(F)c4)c(=O)c3c2C)cc1`, inactive: -1.48%.
`Cc1ccc(C)c(N2CCN(CCCNC(=O)c3nnc(Cc4ccc(F)cc4Cl)o3)CC2)c1`: the “activity change, positive = activation” value is inactive: -38.2%.
For the molecule `Nc1ccn([C@@H]2O[C@H](CO)[C@H](O)C2(F)F)c(=O)n1`, the “activity change, positive = activation” value was inactive: -22.7%.
In the case of `CCOCCCNC(=O)C(c1ccc(Cl)cc1)N(Cc1cccs1)C(=O)c1ccc(NC(C)=O)cc1` (configuration not stated), the “activity change, positive = activation” value is inactive: -11.6%.
The value for `CCC(=O)N1CCc2cc(Br)cc(S(=O)(=O)CCC(=O)N(CC)Cc3ccccc3)c21` was inactive: -0.226%.
`CC(C)(Oc1ccc(Cl)cc1)C(=O)Nc1nc2ccc(S(C)(=O)=O)cc2s1`: the activity change, positive = activation was inactive: 3.73% [at 11.5 µM, percent change from vehicle, -100% = no light].
As for `CN(C)c1ccc(C(CNC(=O)c2c(F)cccc2Cl)N2CCOCC2)cc1` (configuration not stated), the “activity change, positive = activation” value is inactive: -6.19%.
For the molecule `COc1ccc(Cl)cc1NC(=O)NCC1CCN(Cc2ccccc2F)CC1`, the “activity change, positive = activation” value is inactive: -10.4%.
In the case of `CC(=O)N1CCc2cc(CNS(=O)(=O)c3ccc(Cl)s3)ccc21`, the “activity change, positive = activation” value is inactive: 6.44%.
Consider `COc1ccc(-n2c(=O)c3c4c(sc3n3c(SCCC(C)C)nnc23)COC(C(C)C)C4)cc1` (configuration not stated), for which the “activity change, positive = activation” value was inactive: 2.03%.
The value for `COc1cc(OC)cc(C(=O)Nc2ccc3oc(-c4cccc5c(Br)cccc45)nc3c2)c1` was inactive: -5.64%.
As for `CN1C(=O)C2(SCC(=O)N2c2ccc(F)cc2)c2ccccc21` (configuration not stated), the figure is inactive: 3.01%; as for `CCOc1ccc(OCC)c(NS(=O)(=O)c2cc(-c3onc(C)c3C)ccc2OC)c1`, inactive: 2.02%.
Take `COc1ccc(CCC(=O)NCCc2csc(-c3ccc(Cl)cc3)n2)cc1`: the “activity change, positive = activation” value is inactive: -23.5%.
For the molecule `COCCNC(=O)CSc1nc(-c2ccccc2C)nc2c1c(=O)n(C)c(=O)n2C`, the “activity change, positive = activation” value is inactive: 8.31%.
The value for `NS(=O)(=O)c1ccc2nc(NC(=O)COc3ccccc3)sc2c1` was inactive: -4.52%; that for `Cc1ccc(NC(=O)c2nc(S(C)(=O)=O)ncc2N(Cc2ccco2)Cc2ccco2)cc1C` was inactive: -27.4%; that for `CCCN(CCC)C(=O)c1cc2c(=O)n3cccc(C)c3nc2n1C` was inactive: -7.64%.
In the case of `Cc1ccc2cccc(NC(=O)c3ccc(-c4cccc(Cl)c4)o3)c2n1`, the “activity change, positive = activation” value is inactive: 7.55%.
As for `Cc1ccc(NC(=O)Cn2c(=O)oc3cc(S(=O)(=O)N4CCCCCC4)ccc32)cc1Cl`, the figure is inactive: -42.2%.
The value for `CCOc1ccc(Nc2c(S(=O)(=O)c3ccccc3)cnc3ccccc23)cc1` was inactive: -24.6%; that for `CC(C)C(NS(=O)(=O)c1ccc2c(c1)oc(=O)n2C)C(=O)NCCc1ccc(Cl)cc1` (configuration not stated) was inactive: 20.1%.
In the case of `Cc1ccc(-c2nnc(Nc3ccc(S(N)(=O)=O)cc3)c3ccccc23)cc1S(=O)(=O)N1CCCCC1`, the “activity change, positive = activation” value is inactive: -25.5%.
As for `Cc1ccc(C)c(Cn2c(=O)cc(C)c3c(C)nn(C)c32)c1`, the figure is inactive: -26.9%; as for `CC1(C)CCC[C@@]2(C)[C@@H]1CC[C@@]1(C)OC(=O)C[C@H]21`, inactive: -5.6%; as for `CCn1c(C)c(C)c2cc(C(=O)NCc3cccc(C)c3)ccc21`, inactive: -6.58%.
`COc1ccc(NC(=O)/C=C\C(=O)N(c2ccc(C(C)C)cc2)C(C(=O)NCc2ccco2)c2ccc(F)cc2)cc1` (configuration not stated): the “activity change, positive = activation” value is inactive: -44.8%.
The value for `O=C(c1ccccc1)N(Cc1ccco1)Cc1cccs1` was inactive: -24%.
`Cc1cccc(C(=O)Nc2ccc(C(=O)OCc3cc(=O)n4nc(CC(C)C)sc4n3)cc2)c1`: the “activity change, positive = activation” value is inactive: 11.9%.
For the molecule `COc1cccc(CNC(=O)CCc2c(C)c3cc4c(C)coc4c(C)c3oc2=O)c1`, the “activity change, positive = activation” value was inactive: -24.3%.
Regarding `COc1ccc(OCC(=O)N2CCN(C(=O)c3cccc(OC)c3)CC2)cc1`, the “activity change, positive = activation” value is inactive: 1.77%.
As for `CCc1ccccc1NC(=O)CCS(=O)(=O)c1cccc2nonc12`, the “activity change, positive = activation” value is inactive: 14.6%.
The value for `Cc1ccc(-n2ncc3c(N4CCN(C)CC4)ncnc32)cc1C` was inactive: -16.9%; that for `COc1ccccc1NC(=O)c1sc2nc(C)c(C(=O)Nc3ccc(C)cc3C)c(-c3ccc(C)o3)c2c1N` was inactive: -12.1%.
As for `CCN1CCN(CCCNC(=O)c2ccc3nc(Cc4ccccc4)oc3c2)CC1`, the figure is inactive: -4.64%; as for `COc1ccc(N2CCN(C(=O)c3cc(S(=O)(=O)N4CCC(C)CC4)cn3C)CC2)cc1`, inactive: -20.2%.
Take `CCN(C(=O)C1CCN(c2ncnc3c2nc2n3CCCCC2)CC1)c1cccc(Cl)c1`: the “activity change, positive = activation” value was inactive: -22.4%.
The value for `Cc1cccc(N2CCN(c3nc4ccc(C)cc4n4cnnc34)CC2C)c1` (configuration not stated) was inactive: 1.7%.
Turning to `COc1ccc(-n2ccnc(NCc3ccc(C)cc3)c2=O)cc1OC`, the “activity change, positive = activation” value was inactive: -13%.
As to `O=C(NCC(c1ccc2c(c1)OCO2)N1CCOCC1)c1c(F)cccc1F` (configuration not stated), the “activity change, positive = activation” value was inactive: 1.6%.
Turning to `CCOc1ccccc1N(CC)C(=O)c1noc2c1COc1ccc(C)cc1-2`, the “activity change, positive = activation” value was inactive: -32.8%.
In the case of `CCn1cc(C(=O)NCCc2ccc(Cl)cc2)c(=O)c2cc(S(=O)(=O)N3CCC(C)CC3)ccc21`, the “activity change, positive = activation” value is inactive: 0.566%.
The value for `O=C(c1ccc(F)cc1)n1nc(-c2ccccc2)nc1NCc1ccco1` was inactive: 17.4%.
For `O=C(NC1CCCCC1)c1ccc2c(c1)N(Cc1ccc(Cl)cc1)C(=O)c1ccccc1S2=O` (configuration not stated), the “activity change, positive = activation” value is inactive: -26.5%.
For the molecule `Cc1cccc(NC(=O)CCNS(=O)(=O)c2cccc3nsnc23)c1C`, the “activity change, positive = activation” value is inactive: -12.4%.

The values above are taken from PubChem BioAssay AID1508624 (National Center for Advancing Translational Sciences (NCATS), 2021).
